# Experimental data taken from the supplement of paper PMC8728848.
# The list shows a part of the results.
# B1: Banana lectin (Musa acuminata) (protein)
# chain: MNGAIKVGAWGGNGGSAFDMGPAYRIISVKIFSGDVVDAVDVTFTYYGKTETRHFGGSGGTPHEIVLQEGEYLVGMKGEFGNYHGVVVVGKLGFSTNKKSYGPFGNTGGTPFSLPIAAGKISGFFGRGGDFIDAIGVYLEP
# What was measured:
# Assay in all cases: glycan array binding signal (z-score within array); higher = stronger binding
# Settings in all cases: glycan notation: IUPAC condensed, linker removed
# [1] = biological target: Fuc(a1-3)[Gal3S(b1-4)]GlcNAc
# Summary of the method: (§1)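 The binding signal is a Z-score computed within each array. Data were drawn from 3228 arrays in the Consortium for Functional Glycomics database, restricted to those with a known protein sequence. Scores were averaged over arrays of the same protein sequence at different concentrations or buffers, and over linkers, and negative values can be taken as non-binding.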
# [2] = biological target: Fuc(a1-3)[Gal3S(b1-4)]GlcNAc6S
# Summary of the method: as §1
# [3] = biological target: Fuc(a1-3)[GalNAc(b1-4)]GlcNAc
# Summary of the method: as §1
# [4] = biological target: Fuc(a1-3)[GalNAc(b1-4)]GlcNAc6S
# Summary of the method: as §1
# [5] = biological target: Fuc(a1-4)GlcNAc
# Summary of the method: as §1
# [6] = biological target: Fuc(b1-3)GlcNAc
# Summary of the method: as §1
# [7] = biological target: Gal(a1-2)Gal
# Summary of the method: as §1
# [8] = biological target: Gal(a1-3)Gal
# Summary of the method: as §1
# [9] = biological target: Gal(a1-3)Gal(b1-3)GlcNAc
# Summary of the method: as §1
# [10] = biological target: Gal(a1-3)Gal(b1-3)GlcNAc(b1-2)Man
# Summary of the method: as §1
# [11] = biological target: Gal(a1-3)Gal(b1-3)GlcNAc(b1-2)Man(a1-3)[Gal(a1-3)Gal(b1-3)GlcNAc(b1-2)Man(a1-6)]Man(b1-4)GlcNAc(b1-4)GlcNAc
# Summary of the method: as §1
# [12] = biological target: Gal(a1-3)Gal(b1-3)GlcNAc(b1-3)GalNAc
# Summary of the method: as §1
# [13] = biological target: Gal(a1-3)Gal(b1-3)GlcNAc(b1-6)GalNAc
# Summary of the method: as §1
# [14] = biological target: Gal(a1-3)Gal(b1-3)[Fuc(a1-4)]GlcNAc(b1-2)Man(a1-3)[Gal(a1-3)Gal(b1-3)[Fuc(a1-4)]GlcNAc(b1-2)Man(a1-6)]Man(b1-4)GlcNAc(b1-4)GlcNAc
# Summary of the method: as §1
# [15] = biological target: Gal(a1-3)Gal(b1-4)Glc
# Summary of the method: as §1
# [16] = biological target: Gal(a1-3)Gal(b1-4)GlcNAc
# Summary of the method: as §1
# [17] = biological target: Gal(a1-3)Gal(b1-4)GlcNAc(b1-2)Man
# Summary of the method: as §1
# [18] = biological target: Gal(a1-3)Gal(b1-4)GlcNAc(b1-2)Man(a1-3)[Gal(a1-3)Gal(b1-4)GlcNAc(b1-2)Man(a1-6)]Man(b1-4)GlcNAc(b1-4)GlcNAc
# Summary of the method: as §1
# [19] = biological target: Gal(a1-3)Gal(b1-4)GlcNAc(b1-3)GalNAc
# Summary of the method: as §1
# [20] = biological target: Gal(a1-3)Gal(b1-4)GlcNAc(b1-6)GalNAc
# Summary of the method: as §1
# [21] = biological target: Gal(a1-3)Gal(b1-4)[Fuc(a1-3)]GlcNAc
# Summary of the method: as §1
# [22] = biological target: Gal(a1-3)Gal(b1-4)[Fuc(a1-3)]GlcNAc(b1-2)Man(a1-3)[Gal(a1-3)Gal(b1-4)[Fuc(a1-3)]GlcNAc(b1-2)Man(a1-6)]Man(b1-4)GlcNAc(b1-4)GlcNAc
# Summary of the method: as §1
# [23] = biological target: Gal(a1-3)GalNAc
# Summary of the method: as §1
# [24] = biological target: Gal(a1-3)[Gal(a1-4)]Gal(b1-4)GlcNAc
# Summary of the method: as §1
# [25] = biological target: Gal(a1-4)Gal(b1-3)GlcNAc(b1-2)Man(a1-3)[Gal(a1-4)Gal(b1-3)GlcNAc(b1-2)Man(a1-6)]Man(b1-4)GlcNAc(b1-4)GlcNAc
# Summary of the method: as §1
# [26] = biological target: Gal(a1-4)Gal(b1-4)Glc
# Summary of the method: as §1
# [27] = biological target: Gal(a1-4)Gal(b1-4)GlcNAc
# Summary of the method: as §1
# [28] = biological target: Gal(a1-4)Gal(b1-4)GlcNAc(b1-2)Man(a1-3)[Gal(a1-4)Gal(b1-4)GlcNAc(b1-2)Man(a1-6)]Man(b1-4)GlcNAc(b1-4)GlcNAc
# Summary of the method: as §1
# [29] = biological target: Gal(a1-4)Gal(b1-4)GlcNAc(b1-3)Gal(b1-4)Glc
# Summary of the method: as §1
# [30] = biological target: Gal(a1-4)GlcNAc
# Summary of the method: as §1
# [31] = biological target: Gal(a1-6)Glc
# Summary of the method: as §1
# [32] = biological target: Gal(b1-2)Gal
# Summary of the method: as §1
# [33] = biological target: Gal(b1-3)Gal
# Summary of the method: as §1
# [34] = biological target: Gal(b1-3)Gal(b1-4)GlcNAc
# Summary of the method: as §1
# [35] = biological target: Gal(b1-3)GalNAc
# Summary of the method: as §1
# [36] = biological target: Gal(b1-3)GalNAc(a1-3)[Fuc(a1-2)]Gal(b1-4)Glc
# Summary of the method: as §1
# [37] = biological target: Gal(b1-3)GalNAc(a1-3)[Fuc(a1-2)]Gal(b1-4)GlcNAc
# Summary of the method: as §1
# [38] = biological target: Gal(b1-3)GalNAc(b1-3)Gal
# Summary of the method: as §1
# [39] = biological target: Gal(b1-3)GalNAc(b1-3)Gal(a1-4)Gal(b1-4)Glc
# Summary of the method: as §1
# [40] = biological target: Gal(b1-3)GalNAc(b1-4)Gal(b1-4)Glc
# Summary of the method: as §1
# [41] = biological target: Gal(b1-3)GalNAc(b1-4)[Neu5Ac(a2-3)]Gal(b1-4)Glc
# Summary of the method: as §1
# [42] = biological target: Gal(b1-3)GlcNAc
# Summary of the method: as §1
# [43] = biological target: Gal(b1-3)GlcNAc(a1-3)Gal(b1-4)GlcNAc
# Summary of the method: as §1
# [44] = biological target: Gal(b1-3)GlcNAc(a1-6)Gal(b1-4)GlcNAc
# Summary of the method: as §1
# [45] = biological target: Gal(b1-3)GlcNAc(b1-2)Man
# Summary of the method: as §1
binder,measurement,setting,value
B1,glycan array binding signal (z-score),[1],-0.192
same,glycan array binding signal (z-score),[2],-0.184
same,glycan array binding signal (z-score),[3],-0.183
same,glycan array binding signal (z-score),[4],-0.195
same,glycan array binding signal (z-score),[5],-0.195
same,glycan array binding signal (z-score),[6],-0.194
same,glycan array binding signal (z-score),[7],-0.191
same,glycan array binding signal (z-score),[8],-0.205
same,glycan array binding signal (z-score),[9],-0.192
same,glycan array binding signal (z-score),[10],-0.176
same,glycan array binding signal (z-score),[11],-0.168
same,glycan array binding signal (z-score),[12],-0.196
same,glycan array binding signal (z-score),[13],-0.194
same,glycan array binding signal (z-score),[14],0.416
same,glycan array binding signal (z-score),[15],-0.199
same,glycan array binding signal (z-score),[16],-0.193
same,glycan array binding signal (z-score),[17],-0.195
same,glycan array binding signal (z-score),[18],-0.129
same,glycan array binding signal (z-score),[19],-0.194
same,glycan array binding signal (z-score),[20],-0.193
same,glycan array binding signal (z-score),[21],-0.194
same,glycan array binding signal (z-score),[22],-0.173
same,glycan array binding signal (z-score),[23],-0.194
same,glycan array binding signal (z-score),[24],-0.194
same,glycan array binding signal (z-score),[25],0.227
same,glycan array binding signal (z-score),[26],-0.199
same,glycan array binding signal (z-score),[27],-0.199
same,glycan array binding signal (z-score),[28],-0.166
same,glycan array binding signal (z-score),[29],-0.192
same,glycan array binding signal (z-score),[30],-0.194
same,glycan array binding signal (z-score),[31],-0.203
same,glycan array binding signal (z-score),[32],-0.202
same,glycan array binding signal (z-score),[33],-0.195
same,glycan array binding signal (z-score),[34],-0.194
same,glycan array binding signal (z-score),[35],-0.194
same,glycan array binding signal (z-score),[36],-0.194
same,glycan array binding signal (z-score),[37],-0.195
same,glycan array binding signal (z-score),[38],-0.195
same,glycan array binding signal (z-score),[39],-0.192
same,glycan array binding signal (z-score),[40],-0.193
same,glycan array binding signal (z-score),[41],-0.195
same,glycan array binding signal (z-score),[42],-0.193
same,glycan array binding signal (z-score),[43],3.21
same,glycan array binding signal (z-score),[44],-0.163
same,glycan array binding signal (z-score),[45],-0.191
